At least one peptide structure holds a part that was inferred or is arguable (an end, a ring closure or a residue).
Key:
[1] = test system: S. aureus (Liberec) biofilm; assay: Bacterial biofilm, remaining metabolic activity (MTT); type: cell-based, Staphylococcus aureus; conditions: remaining metabolic activity of biofilm, 20 h
Procedure: (§1) Inoculum of S. aureus (Liberec) or P. aeruginosa (Liberec) cultivated overnight in BHI medium was diluted with fresh BHI medium containing 1% glucose to a final concentration to be ca. 10^8 CFU/ml. Then this was pipetted (100 μl) to 96-multiwell polystyrene plate which was incubated at 37° C. under rotary shaking (300 RPM) for 24 h. Medium without bacteria in the wells was used as a negative control. Supernatant from each well was drained and the biofilm formed on the bottom and on the walls of the wells was cautiously washed three times by sterile physiological solution (300 μl). The peptides tested in the concentrations of 1-128 μmol.l^−1 were prepared by twofold serial dilution of their stock solution (1 mmol.l^−1) in fresh BHI medium and then pipetted (100 μl) to the wells with formed biofilms. The biofilms covered by BHI medium without peptide were used as a positive control. The plates were then incubated for 20 h as described above. After that the liquid was drained out and wells were washed twice with sterile physiological solution.
(§2) The metabolic activity of surviving bacterial cells in the biofilm was determined by staining with MTT (3-(4,5-dimethylthiazol-2-yl)-2,5-diphenyl-2H-tetrazolium bromide) as follows: The mixture of BHI medium (100 μl) and 10 μl of the stock solution of MTT (5 mg/ml in physiological solution) was added to each well and the plate was incubated 40 min at 37° C. The liquid was drained out and the insoluble formazan crystals formed by reduction inside the biofilm were dissolved with dimethyl sulphoxide (100 μl). The intensity of staining in each well was measured as absorbance at 540 nm on a Tecan Infinite M200 Pro reader (Tecan GmbH, Austria). Remaining activity of surviving cells inside the biofilm was expressed for each well in percentage according to the following equation:
(§3) [formula] where A is the absorbance of the tested compound, ABL is the absorbance of the negative control, and AC is the absorbance of control biofilm.

[2] = test system: Candida albicans (Olomouc) biofilm; assay: C. albicans biofilm, remaining metabolic activity (XTT); type: cell-based
Procedure: Candida albicans (Olomouc) was sub-cultured overnight in YPD medium (10 g yeast extract (DIFCO, USA), 20 g peptone (OXOID), 20 g glucose (Penta) dissolved in 1 L of distilled water) at constant shaking (100 RPM) at 37° C. Next day, the overnight culture was diluted 1:100 into fresh YPD medium and incubated at constant shaking (200 RPM) at 37° C. until the mid-exponential growth phase was reached. Then the cells were harvested and washed twice by centrifugation in physiological solution (5000 RPM; 5 min). Cells were suspended in sterile salt solution and their optical density was determined at 600 nm.
A final yeast suspension was prepared at a cell density of 1×10^6 CFU (corresponding to optical density of 0.17 at 600 nm) in RPMI 1640 medium with L-glutamine (BioSera), NaHCO3 (2 g/l; Penta) and 0.165 mol.l^−1 MOPS (Duchefa)—further as RPMI broth medium 1.
Biofilms were formed on commercially available sterile, polystyrene, flat-bottomed, 96-well microtiter plates (TPP, SW). Cell suspension (100 μl) was pipetted into selected wells of a microtiter plate and incubated without shaking for 2 hours at 37° C. Afterwards, the wells were washed twice with sterile PBS buffer (1.44 g Na2HPO4, 0.24 g KH2PO4, 0.2 g KCl and 8 g NaCl in 1 l distilled water, pH=7; Penta). Fresh RPMI broth medium 1 (100 μl) was added to each well and the plate was sealed with parafilm and incubated without shaking for 48 hours at 37° C.
Planktonic and non-adherent cells were removed by threefold washing of the biofilm with sterile PBS buffer (200 μl). A twofold serial dilution was used to reach required peptide concentration (in RPMI broth medium 1) in each well. Peptide concentrations range was between 0.39-200 μmol.l^−1. Plates were then sealed with parafilm and incubated for 20 hours at 37° C.
The metabolic activity of surviving Candida cells in the treated biofilm was determined by staining with XTT (2,3-Bis(2-methoxy-4-nitro-5-sulphophenyl)-2H-tetrazolium-5-carboxanilide). Stock solution of PMS (phenazine methosulfate; 7.5 g/l; SIGMA, Czech Republic) stored at −20° C. was diluted in PBS buffer 1:100. Diluted PMS was further mixed (2:25) with stock solution of XTT (0.5 g/l; Alchimica, Slovakia) dissolved in PBS/RPMI broth medium (1:1). Mixture (100 μl) of PMS and XTT was added into treated biofilm in the wells and incubated for 90 min at 37° C. Then the intensity of staining in each well was measured as absorbance at 540 nm on a Tecan Infinite M200 Pro reader (Tecan GmbH, Austria). Remaining metabolic activity of the cells in the biofilm was expressed for each well in percentage and calculated as follows:
[formula] where A is the absorbance of tested compound, ABL is the absorbance of negative control and AC is the absorbance of control untreated biofilm. The non-inoculated wells served as negative control. Inoculated wells not treated with compound served as positive control. Amphotericin B was used as control drug to ensure quality of Candida albicans. The values of remaining metabolic activity of treated biofilms are shown at Table 5.

[3] = test system: P. aeruginosa (Liberec) biofilm; assay: Bacterial biofilm, remaining metabolic activity (MTT); type: cell-based, Pseudomonas aeruginosa; conditions: remaining metabolic activity of biofilm, 20 h
Procedure: as §1, §2, §3

[4] = peptide concentration 8 μmol · l^−1
[5] = peptide concentration 16 μmol · l^−1
[6] = peptide concentration 32 μmol · l^−1
[7] = peptide concentration 64 μmol · l^−1
[8] = peptide concentration 128 μmol · l^−1
[9] = peptide concentration 6.25 μmol · l^−1, 20 hours
[10] = peptide concentration 12.5 μmol · l^−1, 20 hours
[11] = peptide concentration 25 μmol · l^−1, 20 hours
[12] = peptide concentration 50 μmol · l^−1, 20 hours
[13] = peptide concentration 100 μmol · l^−1, 20 hours
[14] = peptide concentration 200 μmol · l^−1, 20 hours

Row | Substance | Metabolic activity (%) S. aureus (Liberec) [1, 4] [%] | Metabolic activity (%) S. aureus (Liberec) [1, 5] [%] | Metabolic activity (%) S. aureus (Liberec) [1, 6] [%] | Metabolic activity (%) S. aureus (Liberec) [1, 7] [%] | Metabolic activity (%) S. aureus (Liberec) [1, 8] [%] | Metabolic activity of C. albicans (%) [2, 9] [%] | Metabolic activity of C. albicans (%) [2, 10] [%] | Metabolic activity of C. albicans (%) [2, 11] [%] | Metabolic activity of C. albicans (%) [2, 12] [%] | Metabolic activity of C. albicans (%) [2, 13] [%] | Metabolic activity of C. albicans (%) [2, 14] [%] | Metabolic activity (%) P. aeruginosa (Liberec) [3, 4] [%] | Metabolic activity (%) P. aeruginosa (Liberec) [3, 5] [%] | Metabolic activity (%) P. aeruginosa (Liberec) [3, 6] [%] | Metabolic activity (%) P. aeruginosa (Liberec) [3, 7] [%] | Metabolic activity (%) P. aeruginosa (Liberec) [3, 8] [%]
1 | H-GILSSLLKKLKKWIAK-NH2 [XVIII] | 68.7 | 46.7 | 19.5 | 10.5 | 3.6 | 11.5 | 2.5 | 3.2 | 3.2 | 3.1 | 2.6 |  |  |  |  | 
2 | H-KILSSLLKKLKKIIAK-NH2 [VI] | 55.6 | 34.0 | 15.1 | 4.4 | 0.1 | 98.8 | 111.2 | 110.5 | 28.3 | 0.4 | 0.0 | 79.0 | 74.1 | 75.7 | 89.2 | 56.8
3 | H-GIWSSLLKKLKKIIAK-NH2 [XIV] | 55.1 | 52.2 | 16.3 | 14.5 | 4.4 | 84.6 | 80.9 | 91.1 | 14.2 | 7.4 | 4.2 | 67.2 | 54.9 | 54.8 | 65.6 | 31.1
4 | H-GIMSSLMKKLAAHIKK-NH2 [VIII] |  |  |  |  |  | 99.4 | 99.1 | 105.6 | 112.2 | 106.8 | 53.0 |  |  |  |  | 
5 | H-GILSSWLKKLKKIIAK-NH2 [XV] | 71.5 | 60.5 | 40.6 | 38.0 | 6.9 | 94.9 | 92.8 | 73.8 | 65.2 | 9.4 | 3.4 | 64.1 | 70.3 | 57.6 | 63.2 | 32.2
6 | H-GILSSLLKKWKKIIAK-NH2 [XVI] | 58.0 | 60.6 | 64.6 | 18.4 | 8.7 | 97.3 | 103.2 | 68.5 | 68.1 | 44.9 | 11.4 | 74.1 | 66.2 | 57.6 | 47.5 | 31.9
7 | H-GIMSSLMKKLKKIIKK-NH2 [VII] |  |  |  |  |  | 104.6 | 116.0 | 120.7 | 31.5 | 22.0 | 0.0 | 77.3 | 76.5 | 71.3 | 53.3 | 33.8
8 | H-GILSSLWKKLKKWIAK-NH2 [XVII] | 72.1 | 12.3 | 2.6 | 5.4 | 7.7 | 2.4 | 1.0 | 0.9 | 1.3 | 2.3 | 1.5 |  |  |  |  | 
9 | H-GILSKLLKKLKKIIAK-NH2 [XI] | 75.2 | 68.4 | 51.0 | 24.0 | 0.0 | 97.7 | 70.3 | 79.3 | 32.8 | 7.6 | 6.1 | 79.4 | 60.9 | 82.9 | 83.1 | 49.1
10 | H-GILKSLLKKLKKIIAK-NH2 [X] | 66.7 | 59.1 | 30.0 | 22.3 | 2.3 | 100.8 | 109.3 | 65.3 | 16.8 | 7.0 | 3.3 | 78.9 | 67.3 | 67.8 | 93.9 | 45.9

— patent US10160785B2, “Antimicrobial peptides and their use for the treatment of topical infections” (priority 2015, dated 2018)
